# Screen size: about 420,000 compounds; about 50,000 (12%) were called active. The shares of active, inactive and inconclusive entries below differ from those in the screen. Calls follow the shape of the dose curve; as a rule, active = well fitted inhibition curve with a large enough effect; inconclusive = small, poorly fitted or top-dose-only effect; inactive = flat fitted curve, though single readings scatter. Potencies of inconclusive entries are left out as doubtful fits.
# Experiment: qHTS for Inhibitors of human tyrosyl-DNA phosphodiesterase 1 (TDP1): qHTS in cells in presence of CPT; also: nearly all actives have a fitted effect of over 55% in size
# Conditions: chicken DT40 Tdp1-/-;hTDP1 cells + 20 nM CPT, ATP luminescence, 48 h; activity change, negative = growth inhibition: at 46.2 µM (top of the series) unless noted
# How it was run: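 Chicken DT40 Tdp1-/- cells complemented with human TDP1, 400 cells/well, exposed to compounds plus 20 nM camptothecin for at least 48 h at 37 C; viability read as ATP content by CellTiter-Glo luminescence.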
# % is scaled to controls: 0 for no effect and ±100 for the full control effect; potency is read from the fitted curve at half-maximal effect; tags tell the direction and shape of the fitted curve.
Compound,Potency,"activity change, negative = growth inhibition"
CCC(=O)C1=C(O)C(c2cccc(Oc3ccccc3)c2)CCC1=O (configuration not stated),active: 20.6 µM,
Cc1nc2cc(C(=O)NCCC3=CCCCC3)ccc2n1-c1ccc(Br)cc1,"inconclusive [inhibitor, single point]",
Cc1ccc(/C=C2\SC(=S)N(CC3CCCO3)C2=O)o1 (configuration not stated),"inconclusive [inhibitor, single point]",
Cc1cc(C)c(NC(=O)CCN2C(=O)c3ccccc3Sc3ncccc32)c(C)c1,"inconclusive [inhibitor, single point]",
COc1ccccc1OCc1ccc(C(=O)N(C)c2ccccc2)o1,"inconclusive [inhibitor, single point]",
Cc1cc(CNC(=O)c2ccc3nc(Cc4ccccc4F)oc3c2)nn1C,"inconclusive [inhibitor, single point]",
COc1ccc(-c2nc3ccc([N+](=O)[O-])cc3[nH]2)cc1,"inconclusive [inhibitor, single point]",
Cc1cc(C)n2nc(-c3sccc3-n3cccc3)cc2n1,"inconclusive [inhibitor, single point]",
N#Cc1cccc(C(c2nnnn2CCc2ccccc2)N2CCN(C3CCCCC3)CC2)c1 (configuration not stated),"inconclusive [inhibitor, single point]",
COc1ccccc1OCCSc1nnc(C)n1-c1ccccc1,,inactive: -21.7%
Cc1cnc(C(=O)OCc2ccc(C#N)cc2)cn1,,inactive: -3.69%
Cc1cc(C)c(NC(=O)CNC(=O)c2ccc(-n3cncn3)c([N+](=O)[O-])c2)c(C)c1,"inconclusive [inhibitor, partial curve]",
CCCCNC(=S)N1CCN(c2nc3ccccc3s2)CC1,,inconclusive: -30.2% [inhibitor]
CN(CC(=O)N1CCCCCC1)S(=O)(=O)c1ccccc1,,inactive: 6.4%
Cc1cccc(C(=O)Nc2nnc(S(=O)(=O)N(C)Cc3ccc(Cl)cc3)s2)c1,"inconclusive [inhibitor, single point]",
CCCCCNC(=O)c1ccc2c(c1)ncn2-c1cccc(C)c1,"inconclusive [inhibitor, single point]",
Cc1noc(C)c1C(=O)OCC(=O)Nc1ccc(N2CCOCC2)cc1,,inactive: -2.09%
O=C1COc2ccc(-c3cc(-c4ccc(Cl)cc4)c4c(n3)-c3ccccc3OC4)cc2N1,active: 1.03 µM,
CN1C[C@@H]2[C@@H]3C(=O)N(Cc4ccccc4)C(=O)[C@@H]3[C@](C)(C1=O)N2C(=O)c1ccc(Br)cc1,,inactive: 0.435%
COc1ccc(-c2cc(-c3ccccc3O)[nH]n2)cc1OC,"inconclusive [inhibitor, single point]",
CC(=O)Nc1ccc(OCC=C(Cl)Cl)cc1,"inconclusive [inhibitor, partial curve]",
CCOC(=O)CNC(=O)CSc1cn(CC(=O)N2CCCCCC2)c2ccccc12,,inactive: 1.36%
CCCC(=O)NC(NC(=S)Nc1ccc(N=Nc2ccccc2)cc1)C(Cl)(Cl)Cl (configuration not stated),active: 5.17 µM,
CCOc1ccc(N/C(SC)=C(/C#N)C(N)=O)cc1,,inactive: -10.6%

Compound,Potency,"activity change, negative = growth inhibition"
C/C(CC(=O)Nc1ccc(N(C)C)cc1)=N\NC(=O)c1ccccc1O,,inactive: -17.3%
CCOC(=O)c1c(-c2ccccc2)csc1NC(=O)CSc1nnc(C)s1,active: 23.1 µM,
CC(C)CNS(=O)(=O)c1cc(C(=O)O)c(Cl)cc1Cl,,inactive: 4.36%
CCC1NC(=O)c2cc(S(N)(=O)=O)c(Cl)cc2N1 (configuration not stated),"inconclusive [inhibitor, single point]",
CCN(CC)CCCNC(=S)N1CCN(c2nc(-c3ccccc3)cs2)CC1,"inconclusive [inhibitor, single point]",
Cc1cc(NC(=O)CCSc2nc(-c3ccco3)cc(C(F)(F)F)n2)no1,,inactive: -0.0163%
COc1ccc(NC(=O)CN2C(=O)C(C)(C)c3ccccc32)cc1Cl,"inconclusive [inhibitor, single point]",
COCCSc1nc2sc3c(c2c(=O)n1-c1ccccc1)CCN(C)C3,"inconclusive [inhibitor, single point]",
CCn1c(C)cc(/C=C2\NC(=O)N(Cc3ccccc3)C2=O)c1C,"inconclusive [inhibitor, single point]",
Cc1cccc(Cn2c(=O)n(CC3CCC(C(=O)NC(C)C)CC3)c(=O)c3sccc32)c1 (configuration not stated),,inactive: 1.51%
COc1cccc(C2CC(=O)Nc3cc(OC)c(OC)c(OC)c32)c1OC(C)C (configuration not stated),"inconclusive [inhibitor, single point]",
O=C(/C=C/c1ccco1)Nc1ccc2nc3n(c(=O)c2c1)CCCC3,"inconclusive [inhibitor, single point]",
CCOCCCn1c(C)nc2c(c1=O)c1nc3ccccc3nc1n2CCC1=CCCCC1,"inconclusive [inhibitor, single point]",
O=C(CCN1C(=O)/C(=C\c2ccccc2F)SC1=S)N1CCCCC1,active: 3.66 µM,
CC(Sc1nc2ccccc2s1)C(=O)NC1CCCc2ccccc21 (configuration not stated),"inconclusive [inhibitor, single point]",
COc1cc(CNC(=O)c2sc3ncccc3c2-n2cccc2)cc(OC)c1OC,active: 18.4 µM,
CC(C)NC(=O)COc1ccc(OCc2ccccc2)cc1,"inconclusive [inhibitor, partial curve]",
Cc1ccc(-c2cc(C(=O)OCC(=O)Nc3ncc(C(F)(F)F)cc3Cl)c3ccccc3n2)cc1,active: 14.6 µM,
COc1ccc(C(=O)CN2C(=O)NC(C)(c3ccccc3)C2=O)cc1OC (configuration not stated),,inactive: -8.18%
Cc1cc(C(=O)CSc2nnc(N)s2)c(C)n1CCc1ccc(Cl)cc1,active: 9.2 µM,
N#Cc1nc(-c2ccc(COc3ccccc3)o2)oc1NCc1cccnc1,"inconclusive [inhibitor, single point]",
O=C(/C=C/c1ccc(Cl)cc1Cl)N(Cc1ccccc1)C1CCS(=O)(=O)C1 (configuration not stated),"inconclusive [inhibitor, single point]",
Cn1cc(CNCCN2CCCCC2=O)c(-c2cccc(Cl)c2)n1,,inactive: -2.31%

# — PubChem BioAssay AID686979 (National Center for Advancing Translational Sciences (NCATS), 2013)
